Experimental findings from PMC2576245 are described below.

The chains behind the UniProt entries cited, without tags or fusion partners. Residues count along the entry.
UniProt P05556: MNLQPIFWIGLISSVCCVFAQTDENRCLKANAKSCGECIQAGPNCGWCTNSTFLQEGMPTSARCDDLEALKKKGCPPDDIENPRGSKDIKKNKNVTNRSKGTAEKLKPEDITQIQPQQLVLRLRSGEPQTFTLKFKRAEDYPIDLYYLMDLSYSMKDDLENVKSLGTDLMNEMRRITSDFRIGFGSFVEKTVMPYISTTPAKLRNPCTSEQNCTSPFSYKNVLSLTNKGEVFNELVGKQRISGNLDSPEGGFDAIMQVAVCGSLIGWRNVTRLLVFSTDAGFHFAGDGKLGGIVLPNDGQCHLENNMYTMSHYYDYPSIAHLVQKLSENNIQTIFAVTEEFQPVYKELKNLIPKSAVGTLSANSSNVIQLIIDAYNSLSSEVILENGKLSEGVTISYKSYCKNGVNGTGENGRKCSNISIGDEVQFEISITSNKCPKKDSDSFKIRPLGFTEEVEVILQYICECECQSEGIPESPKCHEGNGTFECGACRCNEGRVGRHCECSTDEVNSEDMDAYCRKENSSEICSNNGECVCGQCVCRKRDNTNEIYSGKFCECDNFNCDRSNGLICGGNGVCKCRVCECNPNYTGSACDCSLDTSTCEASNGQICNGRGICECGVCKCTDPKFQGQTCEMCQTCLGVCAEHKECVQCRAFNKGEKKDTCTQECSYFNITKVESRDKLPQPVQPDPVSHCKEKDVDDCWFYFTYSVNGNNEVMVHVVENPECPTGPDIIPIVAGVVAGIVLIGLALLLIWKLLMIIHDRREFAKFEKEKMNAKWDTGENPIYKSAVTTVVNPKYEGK
UniProt P49134, residues 21-799: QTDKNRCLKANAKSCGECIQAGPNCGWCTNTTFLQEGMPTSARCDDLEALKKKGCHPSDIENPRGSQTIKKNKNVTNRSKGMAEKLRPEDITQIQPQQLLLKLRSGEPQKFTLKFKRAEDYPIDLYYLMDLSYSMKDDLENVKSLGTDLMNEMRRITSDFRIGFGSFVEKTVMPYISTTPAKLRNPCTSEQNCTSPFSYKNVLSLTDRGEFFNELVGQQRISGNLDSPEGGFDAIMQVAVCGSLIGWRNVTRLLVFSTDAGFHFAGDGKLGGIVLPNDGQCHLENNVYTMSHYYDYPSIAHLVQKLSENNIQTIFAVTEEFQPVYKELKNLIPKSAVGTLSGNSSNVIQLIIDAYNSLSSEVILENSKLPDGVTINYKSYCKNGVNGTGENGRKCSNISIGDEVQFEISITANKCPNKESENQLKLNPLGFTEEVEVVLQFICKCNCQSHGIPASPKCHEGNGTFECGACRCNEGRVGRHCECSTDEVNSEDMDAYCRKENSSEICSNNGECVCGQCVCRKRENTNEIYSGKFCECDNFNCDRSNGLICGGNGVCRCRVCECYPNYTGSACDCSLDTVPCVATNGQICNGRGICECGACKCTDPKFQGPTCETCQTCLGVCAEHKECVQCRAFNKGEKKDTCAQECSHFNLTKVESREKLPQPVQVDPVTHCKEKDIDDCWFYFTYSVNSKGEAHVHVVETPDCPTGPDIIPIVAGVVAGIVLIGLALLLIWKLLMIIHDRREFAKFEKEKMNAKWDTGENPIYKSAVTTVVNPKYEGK
UniProt P09055, residues 21-728: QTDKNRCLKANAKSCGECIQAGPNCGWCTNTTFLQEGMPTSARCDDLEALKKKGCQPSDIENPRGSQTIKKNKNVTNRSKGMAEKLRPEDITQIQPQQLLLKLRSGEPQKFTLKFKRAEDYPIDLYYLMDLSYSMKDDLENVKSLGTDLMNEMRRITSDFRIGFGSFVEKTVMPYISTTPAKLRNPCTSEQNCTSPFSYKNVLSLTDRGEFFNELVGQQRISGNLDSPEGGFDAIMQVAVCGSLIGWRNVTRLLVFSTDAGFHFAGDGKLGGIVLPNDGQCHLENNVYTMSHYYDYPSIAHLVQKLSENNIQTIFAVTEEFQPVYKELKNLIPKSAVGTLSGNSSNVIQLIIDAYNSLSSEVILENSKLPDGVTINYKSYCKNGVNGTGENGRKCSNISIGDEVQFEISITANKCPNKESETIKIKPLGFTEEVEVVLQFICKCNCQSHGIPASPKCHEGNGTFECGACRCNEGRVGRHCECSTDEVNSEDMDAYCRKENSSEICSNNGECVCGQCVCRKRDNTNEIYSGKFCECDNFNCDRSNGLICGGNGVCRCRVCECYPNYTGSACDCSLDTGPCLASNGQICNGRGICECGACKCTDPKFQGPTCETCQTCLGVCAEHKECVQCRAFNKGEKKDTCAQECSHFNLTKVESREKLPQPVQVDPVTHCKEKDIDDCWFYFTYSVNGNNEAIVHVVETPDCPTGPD
UniProt Q96FE5, residues 42-620: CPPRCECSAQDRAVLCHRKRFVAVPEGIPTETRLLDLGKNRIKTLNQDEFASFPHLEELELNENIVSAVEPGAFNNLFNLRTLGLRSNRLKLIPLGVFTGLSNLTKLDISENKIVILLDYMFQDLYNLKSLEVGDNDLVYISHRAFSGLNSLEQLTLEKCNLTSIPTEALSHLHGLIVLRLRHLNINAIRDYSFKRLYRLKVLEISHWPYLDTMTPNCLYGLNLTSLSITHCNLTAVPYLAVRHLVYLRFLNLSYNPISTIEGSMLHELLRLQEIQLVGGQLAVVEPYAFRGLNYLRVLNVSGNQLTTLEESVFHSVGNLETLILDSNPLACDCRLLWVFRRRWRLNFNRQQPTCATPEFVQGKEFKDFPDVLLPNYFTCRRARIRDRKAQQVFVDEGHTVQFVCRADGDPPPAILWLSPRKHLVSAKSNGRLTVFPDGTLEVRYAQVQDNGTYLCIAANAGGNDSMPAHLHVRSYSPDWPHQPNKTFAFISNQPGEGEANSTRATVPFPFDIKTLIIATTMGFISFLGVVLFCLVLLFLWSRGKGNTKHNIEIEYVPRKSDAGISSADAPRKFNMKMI
UniProt P08138, residues 29-427: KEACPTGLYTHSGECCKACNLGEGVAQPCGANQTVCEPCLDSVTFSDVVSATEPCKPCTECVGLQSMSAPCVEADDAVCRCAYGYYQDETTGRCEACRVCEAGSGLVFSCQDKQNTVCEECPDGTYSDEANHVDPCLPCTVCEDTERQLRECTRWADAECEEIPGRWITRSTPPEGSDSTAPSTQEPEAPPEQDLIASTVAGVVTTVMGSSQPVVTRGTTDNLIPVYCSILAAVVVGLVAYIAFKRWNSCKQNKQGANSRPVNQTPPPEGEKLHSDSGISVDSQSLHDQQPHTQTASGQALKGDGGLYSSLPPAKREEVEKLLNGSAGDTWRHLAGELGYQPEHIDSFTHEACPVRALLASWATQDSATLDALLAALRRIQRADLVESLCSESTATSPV

Results are given in words; binding and its absence hold for the method and conditions named. For some of these results: In cells and extracts the contact can be indirect. Some binding calls cover weakened binding; strength is not graded here. For some of these results: Where a sequence is shown, tags or fusion partners need not be part of it.

In assay [1] the target is β1-integrin, endogenous in HEK293 cells (human (endogenous in HEK293)) (UniProt P05556). The assay can be described thus: co-IP; HEK293 cells transfected with NgR, p75, TROY or Lingo-1, stimulated with MAG (5 μg/ml) or medium; immunoprecipitated with anti-β1-integrin antibodies and blotted for the respective component.
The target is the same in assay [2]. Description: co-IP; HEK293 cells (transfected as in a4) stimulated with MAG (5 μg/ml); immunoprecipitated with anti-β1-integrin antibodies, reblotted for Fc; only the binder purified.
Assay [3] concerns the target β1-integrin, endogenous in primary hippocampal neurons (rat (endogenous in primary hippocampal neurons)) (UniProt P49134). Description: co-IP; primary hippocampal cultures treated with wild-type MAG-Fc, mutant MAG-Fc (KGE) or native Fc fragment (2.0 μg/ml MAG), lysed in 1% Triton X-100, 1% Nonidet P-40, 150 mM NaCl, 10 mM Tris pH 7.4; immunoprecipitated with antibodies against β1-integrin and blotted for human Fc, or vice versa; also after PI-PLC (1 unit/ml, 30 min, 37°C; MAG 1 μg/ml, 15 min); only the binder purified.

For assay [4], the target named is GST-β1 (ECD) fusion protein, GST fused to the extracellular domain of β1-integrin (mouse) (UniProt P09055). Description: pull-down; purified GST-β1 (ECD) on glutathione beads; native Fc fragment (2 μg/ml) or MAG-Fc (2 μg/ml) added overnight at 4°C; blot for the Fc fragment; cell free; both purified.

As to “Lingo-1 (from UniProt Q96FE5 42-620) (receptor)”, the binding entry in assay [1] is given as “no binding”.
The same measure, in the same setting: next, “p75 (from UniProt P08138 29-427) (receptor)”: “no binding”.

B1: Nogo-66 receptor (NgR) (receptor, UniProt Q9BZR6 27-447)
chain: CPGACVCYNEPKVTTSCPQQGLQAVPVGIPAASQRIFLHGNRISHVPAASFRACRNLTILWLHSNVLARIDAAAFTGLALLEQLDLSDNAQLRSVDPATFHGLGRLHTLHLDRCGLQELGPGLFRGLAALQYLYLQDNALQALPDDTFRDLGNLTHLFLHGNRISSVPERAFRGLHSLDRLLLHQNRVAHVHPHAFRDLGRLMTLYLFANNLSALPTEALAPLRALQYLRLNDNPWVCDCRARPLWAWLQKFRGSSSEVPCSLPQRLAGRDLKRLAANDLQGCAVATGPYHPIWTGRATDEEPLGLPKCCQPDAADKASVLEPGRPASAGNALKGRVPPGDSPPGNGSGPRHINDSPFGTLPGSAEPPLTAVRPEGSEPPGFPTSGPRRRPGCSRKNRTRSHCRLGQAGSGGGGTGDSEGS
For the molecule B1, the binding entry in assay [1] was “no binding”.

B2: MAG-Fc, recombinant MAG consisting of the MAG extracellular domain fused to human Fc (wild type, RGD) (Fc fusion, UniProt P07722 20-516)
chain: GHWGAWMPSSISAFEGTCVSIPCRFDFPDELRPAVVHGVWYFNSPYPKNYPPVVFKSRTQVVHESFQGRSRLLGDLGLRNCTLLLSTLSPELGGKYYFRGDLGGYNQYTFSEHSVLDIINTPNIVVPPEVVAGTEVEVSCMVPDNCPELRPELSWLGHEGLGEPTVLGRLREDEGTWVQVSLLHFVPTREANGHRLGCQAAFPNTTLQFEGYASLDVKYPPVIVEMNSSVEAIEGSHVSLLCGADSNPPPLLTWMRDGMVLREAVAESLYLDLEEVTPAEDGIYACLAENAYGQDNRTVELSVMYAPWKPTVNGTVVAVEGETVSILCSTQSNPDPILTIFKEKQILATVIYESQLQLELPAVTPEDDGEYWCVAENQYGQRATAFNLSVEFAPIILLESHCAAARDTVQCLCVVKSNPEPSVAFELPSRNVTVNETEREFVYSERSGLLLTSILTLRGQAQAPPRVICTSRNLYGTQSLELPFQGAHRLMWAKIGP
On to B2, for which the binding entry in assay [2], in assay [3] and in assay [4] was “binds” throughout.

B3: TROY (receptor, UniProt Q9NS68 30-423)
chain: ESGDCRQQEFRDRSGNCVPCNQCGPGMELSKECGFGYGEDAQCVTCRLHRFKEDWGFQKCKPCLDCAVVNRFQKANCSATSDAICGDCLPGFYRKTKLVGFQDMECVPCGDPPPPYEPHCASKVNLVKIASTASSPRDTALAAVICSALATVLLALLILCVIYCKRQFMEKKPSWSLRSQDIQYNGSELSCFDRPQLHEYAHRACCQCRRDSVQTCGPVRLLPSMCCEEACSPNPATLGCGVHSAASLQARNAGPAGEMVPTFFGSLTQSICGEFSDAWPLMQNPMGGDNISFCDSYPELTGEDIHSLNPELESSTSLDSNSSQDLVGGAVPVQSHSENFTAATDLSRYNNTLVESASTQDALTMRSQLDQESGAVIHPATQTSLQVRQRLGSL
In the case of B3, the binding result in assay [1] is on record as “no binding”.
